T1: GpIbα (mt) M239V residues 1-290 with C-terminal Arg-(His)6 (human, UniProt P07359 17-306, sulfation at 0, 1, 2 or 3 sites, likely tyrosine residues in the anionic region; which sulfation form was used in Biacore is not stated)
T1 chain: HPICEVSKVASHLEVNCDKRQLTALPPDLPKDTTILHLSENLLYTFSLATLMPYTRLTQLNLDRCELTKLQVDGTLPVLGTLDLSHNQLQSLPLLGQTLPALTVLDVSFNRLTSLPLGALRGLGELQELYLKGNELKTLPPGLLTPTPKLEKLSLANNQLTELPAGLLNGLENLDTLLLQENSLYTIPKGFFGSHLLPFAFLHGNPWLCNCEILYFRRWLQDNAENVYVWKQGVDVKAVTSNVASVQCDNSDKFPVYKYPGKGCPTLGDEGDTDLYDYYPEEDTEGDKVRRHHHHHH

B1: Wild-type vWF-A1 domain […] (ligand)
chain: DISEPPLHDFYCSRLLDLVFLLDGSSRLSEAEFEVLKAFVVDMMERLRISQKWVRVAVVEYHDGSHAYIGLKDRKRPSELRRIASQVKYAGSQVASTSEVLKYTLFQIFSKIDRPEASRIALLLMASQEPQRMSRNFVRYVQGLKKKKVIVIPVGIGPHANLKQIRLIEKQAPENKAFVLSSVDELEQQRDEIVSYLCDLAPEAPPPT
notes: Expressed in Pichia pastoris GS115 from pPIC9; also called A1(wt); wt-A1
B2: Mutant vWF-A1 R543Q, […] (ligand)
chain: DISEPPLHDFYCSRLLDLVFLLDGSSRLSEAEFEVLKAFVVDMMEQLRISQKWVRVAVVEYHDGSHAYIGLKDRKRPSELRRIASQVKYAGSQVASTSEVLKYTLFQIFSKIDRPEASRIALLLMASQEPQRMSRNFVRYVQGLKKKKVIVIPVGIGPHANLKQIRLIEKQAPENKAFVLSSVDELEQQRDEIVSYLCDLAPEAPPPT
notes: also called A1(mt); A1 mutant (R543Q)

Assays:
[1] = biological target: T2, GpIbα (wt) residues 1-269 with C-terminal (His)6 (human, UniProt P07359 17-285); test: Biacore 2000, GpIbα 1-269 captured on immobilized antibody 2D4, A1 5-100 nM as analyte, 25° C., 1:1 Langmuir model; SD 14.4
T2 construct: Lacks the anionic region; also called GpIbα 1-269

[2] = biological target: T1, GpIbα (mt) M239V residues 1-290 with …; test: Biacore 2000, GpIbα 1-290 captured on immobilized antibody 2D4, A1 5-100 nM as analyte, 25° C., 1:1 Langmuir model; SD 2.1
[3] = biological target: T1, GpIbα (mt) M239V residues 1-290 with …; test: Biacore, GpIbα 1-290 captured on 2D4
[4] = biological target: T3, GpIbα (wt) residues 1-290 with C-terminal Arg-(His)6 (human, UniProt P07359 17-306, sulfation at 0, 1, 2 or 3 sites, likely tyrosine residues in the anionic region; which sulfation form was used in Biacore is not stated); test: Biacore 2000, GpIbα 1-290 captured on immobilized antibody 2D4, A1 5-100 nM as analyte, 25° C., 1:1 Langmuir model; SD 14.0
T3 construct: Expressed in BHK cells and secreted; also called GpIbα 1-290; wild-type GpIbα (1-290)

[5] = biological target: T1, GpIbα (mt) M239V residues 1-290 with …; test: Biacore kinetic analysis; rate constants not given
[6] = biological target: T4, GpIbα (mt) M239V residues 1-269 with C-terminal (His)6 (human, UniProt P07359 17-285, M239V); test: Biacore 2000, GpIbα 1-269 captured on immobilized antibody 2D4, A1 5-100 nM as analyte, 25° C., 1:1 Langmuir model; SD 2.7
T4 construct: also called GpIbα 1-269

[7] = biological target: T2, GpIbα (wt) residues 1-269 with …; test: Biacore 2000, GpIbα 1-269 captured on immobilized antibody 2D4, A1 5-100 nM as analyte, 25° C., 1:1 Langmuir model; SD 3.14
[8] = biological target: T3, GpIbα (wt) residues 1-290 with …; test: Biacore, GpIbα 1-290 captured on 2D4
[9] = biological target: T1, GpIbα (mt) M239V residues 1-290 with …; test: Biacore 2000, GpIbα 1-290 captured on immobilized antibody 2D4, A1 5-100 nM as analyte, 25° C., 1:1 Langmuir model; SD 1.6
[10] = biological target: T3, GpIbα (wt) residues 1-290 with …; test: Biacore 2000, GpIbα 1-290 captured on immobilized antibody 2D4, A1 5-100 nM as analyte, 25° C., 1:1 Langmuir model; SD 3.5
[11] = biological target: T4, GpIbα (mt) M239V residues 1-269 with …; test: Biacore 2000, GpIbα 1-269 captured on immobilized antibody 2D4, A1 5-100 nM as analyte, 25° C., 1:1 Langmuir model; SD 2.2

Binder | Kd [1] [nM] | Kd [2] [nM] | fold increase in affinity against GpIbα (wt) + A1 (wt) [3] [fold] | Kd [4] [nM] | fold increase in the association rate against wild-type GpIbα [5] [fold] | Kd [6] [nM] | Kd [7] [nM] | fold increase in affinity against GpIbα (wt) + A1 (wt) [8] [fold] | Kd [9] [nM] | Kd [10] [nM] | Kd [11] [nM]
B1 | 38.4 | 11.1 | 3 | 33.3 | 3 | 12.6 | – | – | – | – | –
B2 | – | – | 5.7 | – | – | – | 16.5 | 2.5 | 5.8 | 13.6 | 7.5

— patent US20050192224A1 (Ablynx, published 2005)
